Experimental data reported in PubChem BioAssay AID2782 (National Center for Advancing Translational Sciences (NCATS), 2010).
Inconclusive results, whose numbers are uncertain, are shown with a selection of clear calls. Potencies beside an inconclusive call are fits to weak or partial responses and may not hold up. “Side channel” marks fits to a control or component signal instead of the main read-out. The source made the active and inactive calls. Calls follow the shape of the dose curve; as a rule, active = well fitted inhibition curve with a large enough effect in the polarisation, with a control signal flat (not every such curve was filed as active); inconclusive = small, poorly fitted or top-dose-only effect, or effect the other way, or a change in a side signal; inactive = no such curve, though single readings can be large or run the other way; the % refers to the polarisation.

Assay: Confirmation of Inhibitors Targeting the Menin-MLL Interaction in MLL Related Leukemias: Competition With Texas Red Labeled MLL-derived Mutant Peptide
Conditions: fluorescence polarization, Texas Red MLL peptide displacement; FP change, negative = inhibition: at the top concentration
Description: qHTS Assay for Inhibitors Targeting the Menin-MLL Interaction in MLL Related Leukemias
NIH Chemical Genomics Center [NCGC]
NIH Molecular Libraries Probe Centers Network [MLPCN]
Assay Submitter (PI): Jolanta Grembecka, Tomasz Cierpicki, University of Virginia
Translocations of the MLL (Mixed Lineage Leukemia) gene are frequently found in human leukemias affecting both children and adults. Fusion of MLL to one of more than 60 genes results in generation of oncogenic proteins upregulating Hox genes, which are vital to blood cell development. Patients harboring fusion of the MLL gene suffer from aggressive leukemias and respond poorly to available therapies. All of the oncogenic fusion proteins have a preserved N-terminal fragment of MLL that has been identified to interact with menin. It has been recently discovered that association with menin is critical to the leukemogenic activity of the MLL fusion oncoproteins. Selective targeting of the menin-MLL interaction could provide an attractive therapeutic approach to develop novel drugs for MLL-related leukemias. Small molecules blocking the menin-MLL interaction should reverse the oncogenic potential of MLL fusion proteins.
We have developed and optimized a fluorescence polarization-based assay for the identification of Menin-MLL inhibitors. The assay was run employing two different MLL-derived peptides. The present assay uses a 12 amino acid peptide labeled with fluorescein at its N-terminus. This peptide consists of the menin high affinity binding motif from MLL and is potently bound by menin. Another peptide with a mutated sequence, labeled with Texas Red, was used in parallel as a less stringent screen for inhibitors.
The present assay was run to confirm the activity of hits from the primary screen using the peptide with a mutated sequence, labeled with Texas Red.
The Menin protein, the MLL-wild type (w.t.) derived peptide (N-terminal 12 amino acids), the MLL-derived peptide labeled with Texas Red and the MLL-w.t. peptide labeled with Fluorescein were kindly supplied by laboratory of Dr. Jolanta Grembecka, University of Virginia. All protein and peptide solutions were stored in single use aliquots at -80C. The Eu3+ Cyrptate-conjugated mouse monoclonal antibody anti-6 Histidine (Eu3+-AB) and the Streptavidin-XL665 conjugate (XL665) were purchased from Cisbio International (Bedford, MA). All antibody and XL665 conjugate solution stocks were stored in single use aliquots at -20C. The Buffer components for all assays were purchased from Sigma-Aldrich (St. Louis, MO) and Invitrogen (Carlsbad, CA).
1. FP reaction buffer: 50 mM Tris-HCl pH 7.5, 50 mM NaCl, 1mM DTT.
Before use, 0.05% BSA is added.
2. Menin protein, MLL-w.t. labeled with fluorescein, MLL-mutant peptide labeled with texas red.
Stored in singe use aliquots at -80C.
3. MLL-w.t. unlabeled peptide as positive control: 10 uM final in FP buffer.
1. Prepare Menin at 200 nM, MLL-w.t.-fluorescein at 25 nM, and MLL-mutant-texas red at 50 nM mixture in FP buffer.
2. Prepare Menin at 200 nM, MLL-w.t.-fluorescein at 25 nM, MLL-mutant-texas red at 50 nM, and 10 uM MLL-w.t. unlabeled mixture in FP buffer.
3. Prepare MLL-w.t.-fluorescein at 25 nM and MLL-mutant-texas red at 50 nM mixture in FP buffer.
3. Dispense 4 ul per well of reagent in step 1 in columns 2, 4 - 48 in a black 1536 well plate, dispense 4 ul per well of reagents from steps 2 and 3 in columns 1 and 3 respectively. Incubate plate at ambient for 15 minutes.
4. Transfer 23 nl per well of compound to plate and incubate at ambient for 1 hr.
5. Read fluorescence polarization for each label using the PerkinElmer Envision.
Envision protocol for fluorescein: FITC FP Dual Enh Mirror, Excitation filter 480, Emission filter (1) P-pol 535, Emission filter (2) S-pol 535
Envision protocol for texas red: FP Dual Enh Mirror, Excitation filter 555, Emission filter (1) P-pol 632, Emission filter (2) S-pol 632
% is scaled to controls: 0 for no effect and ±100 for the full control effect; potency is read from the fitted curve at half-maximal effect; tags tell the direction and shape of the fitted curve or compound fluorescence and quenching.

| Structure (SMILES) | Potency | FP change, negative = inhibition |
| --- | --- | --- |
| COc1cc(-c2ccc(-[n+]3nc(-c4ccccc4)nn3-c3ccc([N+](=O)[O-])cc3)c(OC)c2)ccc1-[n+]1nc(-c2ccccc2)nn1-c1ccc([N+](=O)[O-])cc1 | inconclusive: 100 µM [quencher, side channel, partial curve] |  |
| O=C(O)CN1C(=O)CN=C(c2ccccn2)c2cc(Cl)ccc21 |  | inactive: -13.2% [at 288 µM] |
| Cc1cc(C(=O)NP(=O)(N2CCOCC2)N2CCOCC2)c(C)n1C1CC1 |  | inactive: -16.8% |
| CC[n+]1c(-c2ccccc2)c2cc(N)ccc2c2ccc(N)cc21 | inconclusive: 71 µM [fluorescent, partial curve] |  |
| CCOC(=O)Cc1csc(NC(=O)c2c(O)c3ccccc3n(CCC(C)C)c2=O)n1 | inconclusive: 44.7 µM [quencher, side channel, partial curve] |  |
| c1cc2cc(c1)C[n+]1ccc(c3ccccc31)NCc1ccc(cc1)CNc1cc[n+](c3ccccc13)C2 | active: 100 µM |  |
| O=c1oc2ccccc2c(O)c1C(c1ccccn1)c1c(O)c2ccccc2oc1=O | inconclusive: 141 µM [quencher, side channel, partial curve] |  |
| OC12C3C4CC5C6C4C1C6C(C53)N2CCc1cccc(F)c1 (centres undefined) |  | inactive: 22.9% |
| COc1ccc(C(O)P(=O)(Oc2ccccc2)Oc2ccccc2)cc1 (centres undefined) |  | inactive: -9.59% [at 288 µM] |
| CCCCn1c(=O)c(C(=O)Nc2ccsc2C(=O)OC)c(O)c2ccccc21 | active: 14.2 µM |  |
| CC[C@]12C=CCN3CC[C@@]4(c5ccc(OC)cc5N(C)[C@H]4[C@@](O)(C(=O)OC)[C@@H]1OC(C)=O)C32 (some centres undefined) |  | inactive: 17.2% |
| C[C@@H]1CC[C@@]2(NC1)O[C@H]1C[C@H]3[C@@H]4CC=C5C[C@@H](O)CC[C@]5(C)[C@H]4CC[C@]3(C)[C@H]1[C@@H]2C |  | inactive: 28.8% |
| O=C1NC(=O)c2c1c1c3ccccc3n3c1c1c2c2ccccc2n1C1CCC3O1 | inconclusive: 7.1 µM [inhibitor, full curve] |  |
| CCCCCn1c(=O)c(C(=O)Nc2nc(CC(=O)OCC)cs2)c(O)c2ccccc21 |  | inactive: 30.7% [at 288 µM] |
